In patent US6040293A, “Clavanins” (priority 1997, dated 2000):
Not every detail of the peptide structures is certain; ends, links or a residue may be inferred. No end group written: not given here.

Key:
Assay type in all cases: cell-based
[1] = tested on: L. monocytogenes EGD; assay: radial diffusion assay
Method: (§1) In more detail, the filtrates (≈3.5 mg of protein by BCA) were concentrated to 2 ml by vacuum centrifugation in a Speed Vac Concentrator (Savant Instruments, Hicksville, N.Y.). Gel permeation chromatography was performed on a 1.2×65 cm BioGel P-10 gel permeation column with 5% acetic acid. Preparative continuous acid-urea PAGE electrophoresis was performed as described by Harwig, S. S. L. et al., Anal Biochem (1993) 208:382. Active fractions were pooled and purified by RP-HPLC a 4.6×250 mm Vydac C18 column, using various linear gradients of acetonitrile in 0.1% trifluoroacetic acid (TFA) or 0.13% heptafluorobutyric acid (HFBA). Throughout this multistep procedure, fractions were lyophilized, concentrated and tested for antimicrobial activity against Listeria monocytogenes strain EGD by a radial diffusion technique described in Lehrer, R. I. et al., J Immunol Methods (1991) 137:167. In these assays, the underlay gels contained 9 mM sodium phosphate and 1 mM sodium citrate buffer, 0.30 mg/ml of trypticase soy broth powder (BBL, Cockeysville, Md.) and 1% agarose at a final pH of 6.5.
(§2) In addition to Cecropin P1 and Magainin 1, the activity of Clavanin A(K) was also tested. Clavanin A(K) is identical to Clavanin A except that all of the histidine residues are replaced by lysine. […] The data are provided as minimal bacteriocidal concentrations expressed in μg/ml which are the X-intercepts of radial diffusion assays performed at pH 6.5 in an underlay that contained 10 mM buffer (9:1 citrate:phosphate), 1% agarose and 0.3 mg trypticase soy powder/ml.
The effect of pH on antimicrobial activity against several organisms was tested in a pH range wherein histidine becomes comparably charged to lysine. FIGS. 6-8 show the results for native or synthetic Clavanin A and synthetic Clavanin A(K) using defensin NP-2 as a control, with respect to L. monocytogenes, E. coli, and C. albicans respectively. The radial diffusion assays were conducted as described in Examples 1 and 3 above.

[2] = tested on: E. coli, L. monocytogenes, P. aeruginosa, S. areus and C. albicans; assay: activity against various target organisms at two pHs with and without salt; conditions: for effect of salt on activity: pH 5.5, 200 mM sodium chloride, most organisms (FIG. 13B); for activity compared with Clavanin E or A: pH 7.4, absence of salt, most of the test organisms (FIG. 14A)
Method: (§3) Finally, the activity of Clavanins A and E as well as E(3-23) and E(6-23) was tested against various target organisms at two pHs with and without salt.

[3] = tested on: E. coli ML-35P; assay: colony counting technique; conditions: 1.5 or 3.1 μg/ml, pH 6.5 (FIG. 10)
[4] = tested on: Listeria monocytogenes; assay: colony counting technique; conditions: L. monocytogenes; 3.5 or 7.0 μg/ml; pH 6.5 (FIG. 9)
[5] = tested on: E. faecium; assay: radial diffusion assay; conditions: X-intercept of radial diffusion assay, pH 6.5
Method: as §1, §2

[6] = tested on: Group B Streptococcus; assay: standard underlay assay
[7] = tested on: L. monocytogenes; assay: standard underlay assay
[8] = tested on: E. coli ML-35P; assay: standard underlay assay
[9] = tested on: P. aeruginosa; assay: standard underlay assay; parameters: dose or concentration left out as unconfirmed; conditions: pH 7.4
Method: as §1
[…] The known antimicrobials cecropin A, cecropin B, and cecropin P1 were used as controls.
The standard underlay assay was again conducted supplying both E(3-23) and PG-1 to the underlay. […]

[10] = tested on: Burkaholderia cepacia; conditions: pH 7.4, 200 mM sodium chloride
Method: as §1
Clavanin E(2-23) was tested in the standard underlay assay described in Example 1 herein wherein the underlay contained 10 mM sodium phosphate buffer, pH 7.4 and 1:100 trypticase soy broth with and without 200 mM NaCl. The known antimicrobials cecropin A, cecropin B, and cecropin P1 were used as controls. […]

[11] = tested on: E. coli; assay: minimal bacteriocidal concentrations under various conditions; parameters: unit not given here
Method: (§4) The Tables below show the minimal bacteriocidal concentrations of PG-1, histatin 5, and Clavanin E(3-23) against various organisms under various conditions. E(3-23) was active over a broad pH range and, unlike hisatin 5, it retained activity in the presence of physiological sodium chloride concentrations.
(§5) Low salt conditions (10 mM phosphate)
(§6) High salt conditions (10 mM phosphate+100 mM NaCl)

[12] = tested on: P. aeruginosa; assay: as above; parameters: unit not given here
Method: as §4, §5, §6

[13] = tested on: L. monocytogenes; assay: as above
Method: as §4, §5, §6

[14] = tested on: C. albicans; assay: minimal bacteriocidal concentrations and activity under various conditions
Method: as §3, §4, §5, §6

[15] = high salt (10 mM phosphate+100 mM NaCl), pH 5.5
[16] = high salt (10 mM phosphate+100 mM NaCl), pH 74
[17] = low salt (10 mM phosphate), pH 5.5
[18] = low salt (10 mM phosphate), pH 74

With “VFQFLGKIIHHVGNFVHGFSHVF [synthetic Clavanin A free-acid form]” the “antimicrobial activity, amide compared with free-acid form” value [1] was “both behaved similarly”.

With “GKIIHHVGNFVHGFSHVF-NH2 [Clavanin E(6-23), GKIIH HVGNF VHGFS HVF*]” the “effect of salt on activity” value [2] was “essentially destroyed the activity” and the “activity compared with Clavanin E or A” value [2] was “greatly more active”.

For “VFQFLGKIIHHVGNFVHGFSHVF-NH2 [Clavanin A, VFQFLGKIIHHVGNFVHGFSHVF*]”, the “time to antimicrobial effect” value [3] was no more than 5 min, the “time to antimicrobial effect” value [4] was no more than 5 min and the minimal bacteriocidal concentration [5] was 0.77 µg/mL. The “antimicrobial activity, amide compared with free-acid form” value [1] was “both behaved similarly”, the “effect of salt on activity” value ([1]; 100 mM NaCl added to underlay gels) was “diminish but not to destroy the activity” and the “effect of salt on activity” value [2] was “lowered the activity”.

For “VFQFLGKIIKKVGNFVKGFSKVF-NH2 [Clavanin A(K)]”, the “time to antimicrobial effect” value [3] was no more than 5 min, the “time to antimicrobial effect” value [4] was no more than 5 min and the minimal bacteriocidal concentration [5] was 0.67 µg/mL. For the same substance, the “effect of pH of the assay on activity” value ([1]; radial diffusion, pH 5.5, 6.5, 7.5 (FIG. 6)) was “comparably active at all three pHs”.

“GIGKFLHSAGKFGKAFVGEIMKS [Magainin 1, GI GKFLH SAGKF GKAFV GEI MKS, reference compound]” was tested, and the minimal bacteriocidal concentration [5] was 7.3 µg/mL.

In the case of “KLLGKIIHHVGNFVHGFSHVF-NH2 [Clavanin E(3-23), KLL GKIIH HVGNF VHGFS HVF*]”, the “activity compared with cecropins / effect of salt” value ([6]; pH 7.4, in the presence of salt) is reported as “dramatically more so”, the “activity compared with cecropins” value ([6]; pH 7.4, without salt) is reported as “slightly more active than any of the cecropins” and the “activity compared with cecropins” value ([7]; pH 7.4) is reported as “more active than any of the cecropin controls”. For the same substance, the “maintenance of activity in salt” value ([7]; pH 7.4, 100 mM salt) was “maintained activity in the presence of 100 mM salt better than any of these”, the “activity compared with cecropins” value ([8]; pH 7.4) was “comparably active” and the “effect of salt on activity” value ([8]; pH 7.4, 100 mM sodium chloride) was “did not appear measurably to effect the activity”. The “activity, E(3-23) and cecropins compared” value [9] was “comparably active to the cecropins”, the “effect of salt on activity” value [10] was “only slightly diminished” and the minimal bacteriocidal concentration [11, 15] was 3.6. It also gave a minimal bacteriocidal concentration [11, 16] of 1.2, a minimal bacteriocidal concentration [11, 17] of 0.6 and a minimal bacteriocidal concentration [11, 18] of 0.9. The minimal bacteriocidal concentration [12, 16] was 2.5, the minimal bacteriocidal concentration [12, 17] was 0.8 and the minimal bacteriocidal concentration [12, 18] was 2.5. The minimal bacteriocidal concentration [13, 15] was 1.2, the minimal bacteriocidal concentration [13, 16] was 1.2 and the minimal bacteriocidal concentration [13, 17] was 0.6. It also gave a minimal bacteriocidal concentration [13, 18] of 1.2, a minimal bacteriocidal concentration [14, 15] greater than 250 and a minimal bacteriocidal concentration [14, 16] greater than 80. For the same substance, the minimal bacteriocidal concentration [14, 17] was 3.7, the minimal bacteriocidal concentration [14, 18] was greater than 80 and the antimicrobial activity ([14]; pH 7.4, absence of salt (FIG. 14A)) was “measurably active”. The “effect of salt on activity” value [2] was “better maintained”, the “bacteriocidal activity in salt” value ([2]; pH 7.4, 200 mM NaCl (FIG. 14B)) was “the only antibiotic to maintain its bacteriocidal activity” and the “activity compared with Clavanin E or A” value [2] was “greatly more active”.
